# Measured values: PubChem BioAssay AID651820 (National Center for Advancing Translational Sciences (NCATS), 2012)
# The whole screen tested about 340,000 compounds, of which about 12,000 (3.5%) were called active. Inconclusive results, whose numbers are uncertain, are shown with a selection of clear calls. Calls come from the whole dose curve; as a rule, active = well fitted inhibition curve with a large enough effect; inconclusive = small, poorly fitted or top-dose-only effect, or another doubt; inactive = no such curve, though single readings can be large or run the other way. No potency is given beside an inconclusive call; the fits are too rough.
# Test: qHTS Assay for Inhibitors of Hepatitis C Virus (HCV)
# Details: Huh7.5.1 HCVcc-Cre (HCVcc is cell-culture hepatitis C virus) infection, luciferase reporter, 44 h; activity change, negative = inhibition: at 41.8 µM (top of the series) unless noted
# In short: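 Reporter virus HCVcc-Cre (~0.5 moi) infects cells exposed to compound; seeding density 1,000 cells/well with 4 h settling beforehand. Luminescence, 15 sec read, taken 44 h post-infection following a 15 min RT substrate incubation.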
# % is set by controls: 0 for no effect and ±100 for the full control effect; potency is the fitted concentration of half-maximal effect; tags give direction and shape of the fitted curve.
Compound,Potency,"activity change, negative = inhibition"
COc1ccccc1CCNC(=O)CSc1nnc2ccc(-c3ccncc3)nn12,inactive,
CCOC(=O)C1CCCN(C(=O)CSc2nc(C)cc(C)n2)C1 (centres undefined),inactive,
COC(=O)c1sc(N)c(C(=O)OC)c1COC(=O)CCNS(=O)(=O)c1ccc(C)cc1,"inconclusive [inhibitor, full curve, poor fit]",
COc1ccc(OC)c(NC(=O)/C=C/c2ccc(S(=O)(=O)N3CCOCC3)cc2)c1,"inconclusive [inhibitor, full curve]",
COc1ccccc1-n1cc(-c2ccc(C)cc2)[nH]c1=S,"inconclusive [inhibitor, partial curve]",
COc1ccc(C(=NN)c2ccc(OC)cc2)cc1,inactive,
COc1ccc(C(=O)CC(=O)Nc2ccc([N+](=O)[O-])cc2)cc1,active: 11.2 µM,
Cc1ccsc1C(=O)N(Cc1nnc(-c2ccccc2Cl)o1)C1CC1,inactive,
O=C(COc1ccccc1Cl)NCC(c1cccs1)N1CCOCC1 (centres undefined),"inconclusive [inhibitor, single point]",
O=C(COc1ccccc1-c1ccccc1)N/N=C/c1cccnc1,"inconclusive [inhibitor, single point]",
COC(=O)c1ccc(Cl)c(NC(=O)CN(c2ccccc2)S(=O)(=O)c2ccc(OC)cc2)c1,"inconclusive [inhibitor, single point]",
COc1ccc(OC2CCN(S(=O)(=O)c3ccc(OC)cc3)CC2)cc1,"inconclusive [inhibitor, single point]",
COc1ccc(CCN(C)CC(O)COC(c2ccc(F)cc2)c2ccc(F)cc2)cc1OC (centres undefined),"inconclusive [inhibitor, partial curve]",
O=C1c2ccccc2NC(c2cccs2)N1NS(=O)(=O)c1ccccc1 (centres undefined),"inconclusive [inhibitor, partial curve]",
CCN1C(=O)N[C@@H](CCc2ccccc2)[C@H](C(=O)OC)[C@H]1C,,inactive: -2.87% [at 8.37 µM]
CC(C)c1ccc(NC(=O)N2CCN(S(=O)(=O)c3ccccc3)CC2)cc1,"inconclusive [inhibitor, single point]",
CC[C@H](C)C(C(=O)N1CCN(C(=O)OC(C)(C)C)CC1)n1cc(C(CO)NC(=O)OC(C)(C)C)nn1 (some centres undefined),inactive,
Cc1ccc(OCC(=O)c2cc(C)n(C3CC3)c2C)c([N+](=O)[O-])n1,inactive,
Cc1ccc(Nc2c([N+](=O)[O-])c(=O)oc3ccccc23)cc1,"inconclusive [inhibitor, single point]",
C#CCn1cc(/C=N/Nc2nc3ccccc3[nH]2)c2ccccc21,"inconclusive [inhibitor, single point]",
Cc1ccc(CNC(=O)c2ccc(Cn3nc(C)cc3C)o2)cc1,"inconclusive [inhibitor, single point]",
CN1/C(=C\C=C2/SC(=S)NC2=O)C(C)(C)c2ccccc21,"inconclusive [inhibitor, partial curve]",

Compound,Potency,"activity change, negative = inhibition"
CC1(C)CC(=O)C(C2C3=C(CC(C)(C)CC3=O)Oc3c(Br)cc(Br)cc32)=C(O)C1 (centres undefined),"inconclusive [inhibitor, single point]",
C=C(C)CN(CC)C(=O)CSc1ccc(S(=O)(=O)N2CCN(C)CC2)cn1,inactive,
Cc1ccc(-c2noc(CSc3nc(N)cc(N)n3)n2)cc1,"inconclusive [inhibitor, partial curve]",
CC(=O)Oc1ccc2c(c1)CCC1C2CCC2(C)C(OC(C)=O)CCC12 (centres undefined),inactive,
CCOC(=O)c1cc2cc(OC)ccc2[nH]1,"inconclusive [inhibitor, single point]",
O=C(NCC1CCCO1)C(c1ccc(F)cc1)N(C(=O)Cn1nnc(-c2ccc(F)cc2)n1)c1cccc(O)c1 (centres undefined),inactive,
Cc1cccc(S(=O)Cc2ccc(C(=O)NC3CCN(Cc4ccccc4)CC3)o2)c1 (centres undefined),"inconclusive [inhibitor, single point]",
COc1ccc(C(C)(C)C)cc1NC(=O)c1cc(S(=O)(=O)N(C)C)ccc1N1CCCC1,"inconclusive [inhibitor, single point]",
COc1ccc(C(CNC(=O)c2cccc(S(=O)(=O)N3CCCC(C)C3)c2)N(C)C)cc1 (centres undefined),"inconclusive [inhibitor, partial curve]",
O=S(=O)(Nc1ccccc1Cl)c1cc(NC(=S)NCCN2CCOCC2)ccc1Cl,"inconclusive [inhibitor, single point]",
O=C(CN(Cc1ccccc1)C1=NCCS1)c1ccccc1,"inconclusive [inhibitor, full curve]",
CC(C)CNC(=S)N1CCC(C(=O)c2ccc3c(c2)OCCO3)CC1,"inconclusive [inhibitor, partial curve]",
CCn1cc(CN2CCCC(CNS(=O)(=O)c3cccc4cccnc34)C2)cn1 (centres undefined),inactive,
COc1cc2c(c(OC)c1OC)-c1ccc(OC)c(=O)cc1[C@@H](N(C)CC#CCO)CC2,inactive,
COc1ccc(CN2CCN(C(=O)Cn3ncn4cccc4c3=O)CC2)c(OC)c1OC,"inconclusive [inhibitor, single point]",
CC(C)(C)c1ccc(C(=O)NNC(=O)Cc2cccc3ccccc23)cc1,"inconclusive [inhibitor, partial curve]",
CCc1ccc(C(=O)N/N=C(\C)c2ccncc2)s1,"inconclusive [inhibitor, single point]",
COc1cc2c(cc1OC)CN(C(=O)c1ccc([N+](=O)[O-])o1)CC2,"inconclusive [inhibitor, single point]",
Cc1nc(-c2ccc(NC(=O)c3ccccc3Br)cc2)cs1,"inconclusive [inhibitor, full curve]",
CCOc1ccc(N=Nc2c(N)[nH][nH]c2=O)cc1,inactive,
Cc1ccc(C)c(S(=O)(=O)N2CCCOC2CNC(=O)C(=O)NCCc2ccco2)c1 (centres undefined),inactive,
CN(C)/N=C/C=C1\CCC/C(=C\c2ccc(F)c(F)c2)C1=O,"inconclusive [inhibitor, single point]",
